About 2,200 (0.71%) of roughly 310,000 compounds showed an effect of 50% or more. Effects have a minus sign here. This is one part of the list.
Target: human ether-à-go-go-related gene (hERG) potassium channel (human, UniProt Q12809)
Experiment: primary screen, population patch clamp on CHO cells stably expressing hERG

Chain of human ether-à-go-go-related gene (hERG) potassium channel (Q12809 whole entry, looked up): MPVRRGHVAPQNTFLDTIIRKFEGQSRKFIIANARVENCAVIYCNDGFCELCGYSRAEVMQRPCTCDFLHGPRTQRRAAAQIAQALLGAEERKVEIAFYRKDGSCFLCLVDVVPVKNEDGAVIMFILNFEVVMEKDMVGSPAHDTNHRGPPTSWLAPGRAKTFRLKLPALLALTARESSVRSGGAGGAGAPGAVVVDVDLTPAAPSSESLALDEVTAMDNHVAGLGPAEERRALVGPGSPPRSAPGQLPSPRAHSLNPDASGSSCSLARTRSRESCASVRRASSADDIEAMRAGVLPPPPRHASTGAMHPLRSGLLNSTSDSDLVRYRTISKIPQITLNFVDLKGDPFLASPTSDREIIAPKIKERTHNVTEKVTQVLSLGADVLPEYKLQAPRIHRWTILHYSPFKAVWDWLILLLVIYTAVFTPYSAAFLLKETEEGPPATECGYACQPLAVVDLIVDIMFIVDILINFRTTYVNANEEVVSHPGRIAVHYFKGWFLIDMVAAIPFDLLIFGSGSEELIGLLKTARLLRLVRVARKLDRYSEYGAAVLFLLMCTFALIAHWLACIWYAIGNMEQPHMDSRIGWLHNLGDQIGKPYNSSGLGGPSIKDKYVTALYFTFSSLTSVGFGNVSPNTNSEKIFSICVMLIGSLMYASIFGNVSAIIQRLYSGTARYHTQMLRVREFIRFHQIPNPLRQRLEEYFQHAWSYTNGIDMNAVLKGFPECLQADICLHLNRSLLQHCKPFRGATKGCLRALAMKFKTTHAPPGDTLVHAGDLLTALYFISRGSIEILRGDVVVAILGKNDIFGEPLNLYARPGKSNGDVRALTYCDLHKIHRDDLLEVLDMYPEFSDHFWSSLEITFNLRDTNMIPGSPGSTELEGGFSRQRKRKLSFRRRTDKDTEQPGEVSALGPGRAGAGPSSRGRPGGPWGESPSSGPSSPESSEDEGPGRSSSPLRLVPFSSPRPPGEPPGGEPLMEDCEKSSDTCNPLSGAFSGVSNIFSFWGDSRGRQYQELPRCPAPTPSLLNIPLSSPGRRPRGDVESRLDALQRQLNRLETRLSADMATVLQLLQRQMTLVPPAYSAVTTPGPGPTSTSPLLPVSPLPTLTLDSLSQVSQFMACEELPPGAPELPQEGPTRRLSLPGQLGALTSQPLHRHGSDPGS

Going from `NC(=O)CN(Cc1ccccc1)S(=O)(=O)c1ccc2c(c1)OCCO2` to `Cc1cc(C(=O)CN(Cc2ccc(F)cc2)S(=O)(=O)c2ccc3c(c2)OCCO3)c(C)n1C`, the “hERG current change (%, negative = inhibition) at 1uM” value falls from 15.8% to 15.1%.

First: O=C(CCNS(=O)(=O)c1cccc2nonc12)NCCc1ccc(Cl)cc1
Second: O=C(NCCS(=O)(=O)NCCc1ccccc1)c1ccc2c(c1)OCO2
The “hERG current change (%, negative = inhibition) at 1uM” value of the first is lower: 3.01% for the first, 7.91% for the second.

Going from `Cc1sc(NC(=O)c2cc3ccccc3oc2=O)c(C(=O)OC(C)C)c1-c1ccccc1` to `Cc1ccccc1C(=O)NC(CC(C)C)C(=O)Nc1cccc(S(=O)(=O)N(C)C)c1` (stereo not shown), the “hERG current change (%, negative = inhibition) at 1uM” value rises from 4.54% to 12.5%.

First: Clc1ccc(C(c2nnnn2C2CCCC2)N2CCN(c3nc4ccccc4s3)CC2)cc1 (stereo not shown)
Second: O=C(c1ccc(F)cc1)N1CCN(C2=NS(=O)(=O)c3ccccc32)CC1
The “hERG current change (%, negative = inhibition) at 1uM” value of the first is higher: 17.2% for the first, 9.47% for the second.

Going from `CCOc1ccc(-n2c(=S)sc3c(=O)[nH]c(SCC(=O)NCC4CCCO4)nc32)cc1` (stereo not shown) to `CCCn1c(SCC(=O)NCc2ccc(Cl)cc2)n[nH]c1=O`, the “hERG current change (%, negative = inhibition) at 1uM” value rises from 3.06% to 12.1%.

Compared with `COc1ccccc1OCC(=O)Nc1ccc(C(N)=O)cc1`, `Cc1ccccc1OCCC(=O)OCC(=O)NCCc1ccccc1` is lower in “hERG current change (%, negative = inhibition) at 1uM” value: 15.4% for the first, 2.84% for the second.

Going from `CCCn1c(=O)c(C(=O)NCCc2ccc(OC)cc2)c(O)c2ccccc21` to `CCCCCn1c(=O)c(C(=O)Nc2ncccc2C)c(O)c2ccccc21`, the “hERG current change (%, negative = inhibition) at 1uM” value rises from 11.6% to 12.3%.

Compared with `Cc1ccc(CNC(=O)CSc2nc3ccccc3[nH]2)cc1`, `COCCn1c(SCC(=O)Nc2cccc(NC(C)=O)c2)nc2c([nH]c3ccccc32)c1=O` is higher in “hERG current change (%, negative = inhibition) at 1uM” value: 10% for the first, 14.4% for the second.

Compared with `Cc1ccc(-c2c[n+](=O)c3c(n2[O-])CCC3)cc1`, `Cc1ccc2nc(-c3ccc(N)cc3)sc2c1` is lower in “hERG current change (%, negative = inhibition) at 1uM” value: 16.5% for the first, 13.6% for the second.

Compared with `CCc1ccccc1NC(=S)N(Cc1cccc(C)c1)c1cccnc1`, `CN(Cc1cccnc1)Cc1cn(Cc2ccccc2)nc1-c1ccc2c(c1)OCO2` is lower in “hERG current change (%, negative = inhibition) at 1uM” value: 21.3% for the first, 4.36% for the second.

First: Cc1ccc(-n2nnnc2SCC(=O)N2Cc3ccccc3CC2C(=O)O)cc1 (stereo not shown)
Second: O=C(O)C1Cc2ccccc2CN1C(=O)COc1ccc(Cl)cc1 (stereo not shown)
The “hERG current change (%, negative = inhibition) at 1uM” value of the first is higher: 11.8% for the first, 3.22% for the second.

First: CNS(=O)(=O)c1cccc(C(=O)NNC(=O)c2ccc(COc3ccccc3)cc2)c1
Second: O=C(O)c1ccc(CS(=O)(=O)c2ccc(Br)cc2)cc1
The “hERG current change (%, negative = inhibition) at 1uM” value of the first is lower: 11.1% for the first, 13.9% for the second.

Going from `Cc1cc(C)nc(SCCC(=O)Nc2ccc(F)cc2)n1` to `CCSc1nnc(NC(=O)CSc2nc(C)cc(C)n2)s1`, the “hERG current change (%, negative = inhibition) at 1uM” value falls from 11.4% to -0.119%.

Going from `O=C(NCCc1ccccc1)c1ccc2c(c1)S(=O)(=O)c1cc(Cl)ccc1C2=O` to `Cc1ccc2nc(N/C(=N/S(=O)(=O)c3ccc(F)cc3F)c3ccccc3)sc2c1`, the “hERG current change (%, negative = inhibition) at 1uM” value rises from 14.5% to 15.5%.

First: CCOc1ccc(C(C)(O)CN2CCOCC2)cc1 (stereo not shown)
Second: Cc1cccc(OCC(O)Cn2c(=N)n(CCN3CCOCC3)c3ccccc32)c1.Cl (stereo not shown)
The “hERG current change (%, negative = inhibition) at 1uM” value of the first is higher: 16.6% for the first, -8.29% for the second.

First: O=C(COC(=O)c1ccccc1Oc1ccccc1)NCc1ccco1
Second: O=C(CSc1nnc(-c2ccco2)c(-c2ccco2)n1)c1ccccc1
The “hERG current change (%, negative = inhibition) at 1uM” value of the first is lower: 10.9% for the first, 14.2% for the second.

Compared with `CC(=O)Nc1ccc(SCc2ncc(-c3ccccc3)o2)cc1`, `O=c1c2ccccc2oc2ccc(NCCCn3ccnc3)cc12` is higher in “hERG current change (%, negative = inhibition) at 1uM” value: 12.7% for the first, 15.5% for the second.

First: COc1c(F)c(F)c(C(=O)Nc2cccc(Cl)c2N2CCOCC2)c(F)c1F
Second: COc1ccc(S(=O)(=O)N2CCOCC2)cc1NC(=O)CSc1ccc(F)cc1
The “hERG current change (%, negative = inhibition) at 1uM” value of the first is higher: 11.4% for the first, -8.57% for the second.

Compared with `CCCCNC(=O)c1cc2c(=O)n(CC)c3ccccc3c2s1`, `CCCc1nn2c(=O)cc(CSCC(=O)Nc3ccccc3)nc2s1` is higher in “hERG current change (%, negative = inhibition) at 1uM” value: 13.1% for the first, 28.4% for the second.

Compared with `COc1ccc([N+](=O)[O-])cc1NC1CCN(C(=O)c2cccs2)CC1`, `Cc1ccc(Cl)cc1N1CCN(C(=O)c2noc(C)c2[N+](=O)[O-])CC1` is higher in “hERG current change (%, negative = inhibition) at 1uM” value: -27.2% for the first, 10.6% for the second.

Compared with `O=C(CN1CCN(S(=O)(=O)c2cc(Cl)ccc2Cl)CC1)c1ccc(O)c(O)c1`, `O=C(Cn1cnc2ccccc2c1=O)N1CCN(S(=O)(=O)c2ccc(F)cc2)CC1` is lower in “hERG current change (%, negative = inhibition) at 1uM” value: 22.5% for the first, 5.18% for the second.

Compared with `COc1cc(/C=N/NC(=O)CC2(C)OCCCO2)ccc1OCc1ccccc1`, `COc1ccc(Nc2cc(C(=O)NCCCN3CCOCC3)c3ccccc3n2)c(OC)c1` is lower in “hERG current change (%, negative = inhibition) at 1uM” value: 11.7% for the first, -2.29% for the second.

First: CCCOc1ccc2c(CC)cc(=O)oc2c1C
Second: CCCn1cc(S(=O)(=O)c2ccc(C)cc2)c(=O)c2cc(OCC)ccc21
The “hERG current change (%, negative = inhibition) at 1uM” value of the first is higher: 12.3% for the first, -5.33% for the second.

Going from `CCSc1nnc(C)n1-c1ccc(C(=O)O)cc1` to `CCSc1nnc(NC(=O)C2CC(=O)N(Cc3ccc(C)cc3)C2)s1` (stereo not shown), the “hERG current change (%, negative = inhibition) at 1uM” value falls from 9.56% to 3.25%.

Going from `CN1CCCCCC1=Nc1ccccc1C#N.O=C(O)C(=O)O` to `O=C(CSc1nnc(-c2ccccc2)o1)NC1CCCCC1`, the “hERG current change (%, negative = inhibition) at 1uM” value falls from 14.4% to -3.22%.

Going from `COC(=O)Nc1ccc(S(=O)(=O)N2CCCCC2)cc1` to `Cc1cc(C(=O)Nc2ccc(S(=O)(=O)N3CCOCC3)cc2)c(C)o1`, the “hERG current change (%, negative = inhibition) at 1uM” value rises from -0.965% to 9.36%.

Compared with `CN1CCOC(=O)/C1=N/Nc1cc(Cl)ccc1Cl`, `Cc1cc(C)nc(N/N=C/c2cccc(Cl)c2)n1` is lower in “hERG current change (%, negative = inhibition) at 1uM” value: 7.79% for the first, 0.762% for the second.

Going from `C/C(CC(=O)Nc1ccccn1)=N\NC(=O)c1ccc([N+](=O)[O-])cc1Cl` to `O=C1NC(c2cccc([N+](=O)[O-])c2)Oc2ccccc21` (stereo not shown), the “hERG current change (%, negative = inhibition) at 1uM” value rises from 7.02% to 12.6%.

First: Cc1cc(Br)cc(/C=N/NC(=O)c2ccc3c(c2)OCO3)c1O
Second: O=C(CSc1ncnc2sccc12)NCc1ccc2c(c1)OCO2
The “hERG current change (%, negative = inhibition) at 1uM” value of the first is higher: 11.4% for the first, 2.16% for the second.

Compared with `CC1CCN(C(=O)Cn2nnc(-c3ccc(N)cc3)n2)CC1`, `C=CCN(CC=C)C(=O)c1ccc(OC2CCN(S(=O)(=O)N(C)C)CC2)cc1` is lower in “hERG current change (%, negative = inhibition) at 1uM” value: 16.9% for the first, 2.36% for the second.

Compared with `Nn1c(SCC(=O)NC2CCS(=O)(=O)C2)nc2scc(-c3ccccc3)c2c1=O` (stereo not shown), `CCN1C(=O)C(C(=O)c2ccccc2)SC1=S` (stereo not shown) is higher in “hERG current change (%, negative = inhibition) at 1uM” value: 7.57% for the first, 11.7% for the second.

Going from `CCOc1cc(/C=C(\C#N)C(=O)Nc2cccc(C(=O)O)c2)ccc1OCc1ccc(Br)cc1` to `CCOc1ccc(NC(=O)C(C)C(Cc2ccc(C)cc2)C(=O)O)cc1` (stereo not shown), the “hERG current change (%, negative = inhibition) at 1uM” value falls from 12.5% to 12.1%.

First: CCN(CC)CCCNC(=O)c1oc2ccc(S(=O)(=O)N3CC(C)CC(C)C3)cc2c1C (stereo not shown)
Second: Cc1ccn2c(=O)c(C(=O)NCCCN3CCCCC3C)c(O)nc2c1 (stereo not shown)
The “hERG current change (%, negative = inhibition) at 1uM” value of the first is lower: 6.83% for the first, 18.4% for the second.

Going from `Cn1c(NN)nc2sc3c(c2c1=O)CCC3` to `COCCN1CC(C(=O)NCCc2nc(C)c(C)s2)CCC1=O` (stereo not shown), the “hERG current change (%, negative = inhibition) at 1uM” value rises from 1.05% to 20.5%.

First: O=C(CN(CC(=O)N1CCOCC1)S(=O)(=O)c1ccc(Br)s1)N1CCOCC1
Second: O=C(NCC1CCCO1)C1CCN(C2CCN(C(=O)CC3CCCC3)CC2)CC1 (stereo not shown)
The “hERG current change (%, negative = inhibition) at 1uM” value of the first is higher: 12.5% for the first, 9.16% for the second.

First: Cc1ccc(/C=N/NC(=O)Cn2nccc2C)o1
Second: O=C(N/N=C/c1sc(=O)n(-c2ccccc2)c1Cl)c1ccncc1
The “hERG current change (%, negative = inhibition) at 1uM” value of the first is lower: 1.27% for the first, 12.9% for the second.

Compared with `CCC(COC)NCc1cn(-c2ccc(F)cc2F)nc1-c1ccccc1C` (stereo not shown), `CCOc1cccc(NC(=O)c2cccc(F)c2)c1` is higher in “hERG current change (%, negative = inhibition) at 1uM” value: 3.79% for the first, 14.4% for the second.

Compared with `C[C@]12CC[C@@H]3c4ccc(O)cc4[C@@H](O)C[C@H]3[C@@H]1CC[C@@H]2O`, `O=C(O)C1CC=C(Cl)CC1C(=O)NCC1OCCc2ccccc21` (stereo not shown) is lower in “hERG current change (%, negative = inhibition) at 1uM” value: 15% for the first, 13.2% for the second.

First: O=[N+]([O-])c1cc(C(F)(F)F)cc([N+](=O)[O-])c1NCCNC(=S)Nc1ccc(Cl)c(Cl)c1
Second: COc1ccc(/C=C2\C(=O)ON=C2c2cccc([N+](=O)[O-])c2)cc1
The “hERG current change (%, negative = inhibition) at 1uM” value of the first is lower: 5.85% for the first, 10% for the second.

Going from `Cc1cc(NC(=O)c2ccco2)sc1C` to `COc1ccc(NC(=O)Nc2nnc(-c3ccco3)s2)cc1`, the “hERG current change (%, negative = inhibition) at 1uM” value rises from 4.07% to 12.3%.

Compared with `O=C(NCCCN1CCN(Cc2ccccc2)CC1)C1CCN(S(=O)(=O)N2CCCC2)CC1`, `BrC(=C\c1ccccc1)/C=N/N1CCN(Cc2ccccc2)CC1` is higher in “hERG current change (%, negative = inhibition) at 1uM” value: 6.3% for the first, 13.8% for the second.

First: Cc1ccc(S(=O)(=O)N2[C@@H](c3cccc(Cl)c3)C(C(=O)O)=CC[C@H]2c2ccc(C(C)C)cc2)cc1
Second: O=C(OCC(=O)N1CCCc2ccccc21)c1ccc(S(=O)(=O)C(F)F)cc1
The “hERG current change (%, negative = inhibition) at 1uM” value of the first is lower: 5.85% for the first, 18.2% for the second.

Going from `Cn1c(NCCCO)nc2ccccc21` to `CC(C)(C)NC(=O)COc1ccc(CNn2nnnc2N)cc1`, the “hERG current change (%, negative = inhibition) at 1uM” value rises from 10.1% to 15.2%.

Going from `COc1ccccc1CN(C)C(=O)c1cc(-c2cc(OC)c(OC)c(OC)c2)nc2ccccc12` to `O=C1C=C(OCc2ccccc2)CN1`, the “hERG current change (%, negative = inhibition) at 1uM” value falls from 15% to 9.1%.
